Screen size: about 230,000 compounds; about 3,600 (1.6%) were called active. The shares of active, inactive and inconclusive entries below differ from those in the screen. The call rests on the fitted dose curve; in most records, active means well fitted inhibition curve with a large enough effect (not every such curve was filed as active); inconclusive means small, poorly fitted or top-dose-only effect, or another doubt; inactive means no such curve, though single readings can be large or run the other way. Potencies of inconclusive entries are doubtful fits and often do not repeat.
Molecular target: Lysine-specific demethylase 4E (Homo sapiens) (UniProt B2RXH2)
Test: qHTS Assay for Inhibitors of Human Jumonji Domain Containing 2E (JMJD2E)
Details: JMJD2E catalytic domain, FDH-coupled NADH fluorescence (FDH is formaldehyde dehydrogenase); series mostly up to 57.1 µM; activity change, negative = inhibition: at the top concentration
Further: nearly all actives have a fitted effect of over 50% in size.
Potency means the concentration at half of the fitted maximal effect; tags describe the fitted curve by direction and shape.
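Wherever activity change, negative = inhibition is given: 0% = wells with enzyme and -100% = buffer wells without enzyme.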

UniProt B2RXH2, sequence (B2RXH2 whole entry, looked up, the tested form may be a part): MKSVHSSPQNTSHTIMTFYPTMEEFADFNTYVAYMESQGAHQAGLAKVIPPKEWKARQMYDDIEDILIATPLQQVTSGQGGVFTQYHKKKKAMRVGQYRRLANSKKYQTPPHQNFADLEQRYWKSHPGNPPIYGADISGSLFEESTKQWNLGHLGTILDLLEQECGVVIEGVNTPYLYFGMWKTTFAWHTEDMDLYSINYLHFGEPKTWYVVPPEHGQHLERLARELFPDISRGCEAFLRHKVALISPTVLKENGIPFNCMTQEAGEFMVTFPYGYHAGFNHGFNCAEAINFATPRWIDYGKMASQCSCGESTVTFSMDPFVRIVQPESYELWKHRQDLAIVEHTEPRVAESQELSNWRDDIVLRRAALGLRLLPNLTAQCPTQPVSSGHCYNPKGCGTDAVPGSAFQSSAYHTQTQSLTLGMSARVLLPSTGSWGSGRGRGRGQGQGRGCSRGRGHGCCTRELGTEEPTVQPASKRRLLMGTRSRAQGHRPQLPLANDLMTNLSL

Structure (SMILES)	Potency	activity change, negative = inhibition
Cc1csc(N(C(=O)c2ccccc2F)c2ccccc2)n1	inconclusive: 28.2 µM [inhibitor, single point]	–
Cc1c(C(=O)c2no[n+]([O-])c2C(=O)c2cnn(C)c2C)cnn1C	–	inactive: 0.384%
O=C(Nc1ccc(NC(=O)c2ccco2)c(Cl)c1)c1ccc2c(c1)OCCO2	inconclusive: 31.6 µM [inhibitor, single point]	–
CC(=O)c1c(C)[nH]c(C(=O)OCC(=O)Nc2cc(S(=O)(=O)N3CCCC3)ccc2Cl)c1C	–	inactive: 6.33%
BrC(/C=N/N1CCN(Cc2ccccc2)CC1)=C/c1ccccc1	–	inactive: 2.52%
COC(=O)Cc1n[nH]c(=O)c2ccccc12	–	inactive: 0.677%
O=C(CSc1nnnn1-c1ccc(F)cc1)NCc1cccs1	inconclusive: 39.8 µM [inhibitor, partial curve, poor fit]	–
COC(=O)c1cc2nc(-c3ccc(OC)cc3)cc(C(F)(F)F)n2n1	inconclusive: 0.891 µM [inhibitor, partial curve, poor fit]	–
O=C(Nc1ccccc1)c1cnc2n(c1=O)CCS2	–	inactive: 1.33%
CCNCc1ccccc1OCc1ccccc1	–	inactive: -7.67%
O=C1C2CC=C(Cl)CC2C(=O)N1CC1OCCc2ccccc21 (stereo unspecified)	–	inactive: 5.28%
COC(=O)/C(=C/Nc1ccc(O)cc1)[N+](=O)[O-]	inconclusive: 31.6 µM [inhibitor, single point]	–
Cc1ccc(C(C(=O)NC(C)(C)C)N(C(=O)c2csnn2)C2CC2)cc1 (stereo unspecified)	–	inactive: -4.62%
Cn1c(=O)c(=O)n(C)c2cc(S(=O)(=O)Nc3ccc4c(c3)OCCO4)ccc21	–	inactive: 10.3%
COc1cccc(NC(=O)Nc2ccc(C(C)(C)C)cc2)c1	–	inactive: -7.47%
Cn1c(CNC(=O)OC(C)(C)C)n[nH]c1=S	inconclusive: 28.2 µM [inhibitor, single point]	–
Nc1ccc(N(c2ccccc2)c2ccc(N)cc2)cc1	inconclusive: 28.2 µM [inhibitor, single point]	–
COc1ccc(-c2n[nH]c(=S)n2C2CCCCC2)cc1	–	inactive: -1.2%
COC(=O)[C@@]1(Cc2ccccc2)[C@H]2c3cc(C(=O)N(C)C)n(Cc4cc(F)c(F)c(F)c4)c3C[C@H]2CN1C(=O)c1ccccc1	inconclusive: 5.01 µM [inhibitor, partial curve, poor fit]	–
CCN1CCN(C(=S)Nc2cc(C(=O)OC)ccc2C(=O)OC)CC1	inconclusive: 25.1 µM [inhibitor, partial curve]	–
O=C(c1cc2ccccc2o1)N1CCN(S(=O)(=O)c2cccs2)CC1	–	inactive: -5.88%
CSc1nc2n(n1)C(c1ccccn1)C1=C(CC(C)(C)CC1=O)N2 (stereo unspecified)	inconclusive: 22.4 µM [inhibitor, partial curve]	–
CC(=O)C(=Nc1ccccc1Cl)NNc1ccc(Cl)cc1	–	inactive: -1.86%
Cc1ccc2c(C)c(C(=O)Nc3cccnc3)oc2c1	inconclusive: 39.8 µM [inhibitor, single point]	–

Structure (SMILES)	Potency	activity change, negative = inhibition
Cc1nc2ccccc2nc(C)c1=NOCc1ccc(Cl)cc1Cl	inconclusive: 39.8 µM [inhibitor, single point]	–
COc1ccc2[nH]cc(CCNc3nc(-c4ccc(C(=O)N(C)C)cc4)nc4ccccc34)c2c1	inconclusive: 39.8 µM [inhibitor, single point]	–
COc1cc(/C=C/C(=O)OC(C)C(=O)Nc2c(C)n(C)n(-c3ccccc3)c2=O)ccc1OCC#N (stereo unspecified)	inconclusive: 28.2 µM [inhibitor, partial curve]	–
O=C(O)COc1ccccc1C(Nc1ccccn1)c1cc(Cl)c2cccnc2c1O (stereo unspecified)	inconclusive: 35.5 µM [inhibitor, single point]	–
O=C(O)c1ccc(N2Cc3ccccc3C2)cc1O	inconclusive: 6.31 µM [inhibitor, single point]	–
Cc1ccc(C(=O)N2CCC3(CC2)Oc2ccc(F)cc2C(=O)C32CC(c3cccnc3)=NO2)s1 (stereo unspecified)	–	inactive: -0.879%
CC(C)c1ccc(NC(=O)c2snc3ccc(Cl)cc23)cc1	–	inactive: -3.6%
COC(=O)CC1C(=O)NCCN1C(=S)NC(=O)C(c1ccccc1)c1ccccc1 (stereo unspecified)	inconclusive: 39.8 µM [inhibitor, single point]	–
Fc1ccc(Nc2nc(N3CCOCC3)c3ccccc3n2)cc1	inconclusive: 39.8 µM [inhibitor, single point]	–
CC(c1ccccc1)n1c(-c2cccs2)nc2c(c(=O)c3ccccc3n2C)c1=O (stereo unspecified)	–	inactive: 5.67%
COc1ccc(/C=C(\C#N)C(=O)OCC(=O)NC(=O)NCCC(C)C)cc1	inconclusive: 39.8 µM [inhibitor, single point]	–
Cc1ccccc1NC(=O)CC1SCCNC1=O (stereo unspecified)	–	inactive: -8.39%
O=C1CCCC2=C1C(c1cccs1)n1nc(SCc3ccccc3)nc1N2 (stereo unspecified)	inconclusive: 35.5 µM [inhibitor, single point]	–
CN(C)c1ccc(/C=N\NC(=S)SCN2C(=O)C3CCC(C)(C2=O)C3(C)C)cc1 (stereo unspecified)	inconclusive: 22.4 µM [inhibitor, partial curve]	–
COC(=O)CSc1ncnc2c1sc1nc(N3CCOCC3)c3c(c12)CCCC3	inconclusive: 28.2 µM [inhibitor, partial curve]	–
COCCCNC(=S)N/N=C/c1ccccc1O	active: 28.2 µM	–
O=C(c1ccc(F)cc1)c1ccc(N2CCCC2)cc1	inconclusive: 39.8 µM [inhibitor, single point]	–
COc1cccc(Cn2c(Oc3ccccc3)nc3c2c(=O)n(C)c(=O)n3C)c1	–	inactive: 7.44%
Cn1c2ccccc2c2ncn(CCCN3CCOCC3)c(=O)c21	inconclusive: 31.6 µM [inhibitor, partial curve]	–
O=C(N/N=C\c1c(O)ccc2ccccc12)c1ccc(Cn2cccn2)o1	inconclusive: 39.8 µM [inhibitor, single point]	–
O=C(O)c1cccnc1C(=O)N1CCc2c([nH]c3ccccc23)C1C(F)(F)F (stereo unspecified)	inconclusive: 39.8 µM [inhibitor, single point]	–
CCN(Cc1cc2cc(OC)ccc2[nH]c1=O)C(=O)Cc1ccc(OC)cc1	inconclusive: 8.91 µM [inhibitor, partial curve]	–
Nc1nc(SCC(=O)NCCCN2CCOCC2)nc2sc3c(c12)CCC3	inconclusive: 39.8 µM [inhibitor, single point]	–
c1ccc(-n2ncc3c2ncn2nc(-c4ccco4)nc32)cc1	inconclusive: 3.55 µM [inhibitor, full curve]	–

Structure (SMILES)	Potency	activity change, negative = inhibition
O=c1c2cc(NC(=S)NC3CCN(Cc4ccccc4)CC3)ccc2nc2n1CCCCC2	inconclusive: 31.6 µM [inhibitor, single point]	–
COc1cc(/C=N/NC(=O)c2c(-c3ccccc3)noc2C)cc(OC)c1OC	inconclusive: 39.8 µM [inhibitor, single point]	–
OC/C=C/c1ccc(O)c(O)c1	–	inactive: -17.3%
O=C(N/N=C/c1sc(=O)n(-c2ccccc2)c1Cl)c1ccncc1	–	inactive: -1.44%
Cc1cc(-c2ccccc2)n2nc(N)nc2n1	inconclusive: 28.2 µM [inhibitor, partial curve]	–
O=C(N/N=C/c1ccccn1)c1ccco1	inconclusive: 25.1 µM [inhibitor, single point]	–
COc1ccc(-c2cc3nc4n(c(=O)c3s2)CCCCC4)cc1	inconclusive: 15.8 µM [inhibitor, partial curve]	–
Nc1n[nH]c(=S)n1/N=C1/C(=O)Nc2ccccc21	active: 7.08 µM	–
Cc1cc(C(=O)COC(=O)c2cc(Cl)ccc2N)c(C)n1Cc1ccco1	inconclusive: 28.2 µM [inhibitor, partial curve]	–
CCn1cc(C(=O)O)c(=O)c2cnc(N3CCN(C(=S)Nc4ccc(F)cc4)CC3)nc21	inconclusive: 39.8 µM [inhibitor, single point]	–
C=C(C)CNC(=S)N=Nc1c(O)[nH]c2ccc([N+](=O)[O-])cc12	–	inactive: 5.23%
Cc1ccc2[nH]c(=O)c(CN(Cc3ccco3)C(=O)c3ccncc3)cc2c1	inconclusive: 28.2 µM [inhibitor, single point]	–
C(=C\N1CCCCCC1)/c1nnnn1-c1ccc(-c2ccccc2)cc1	inconclusive: 28.2 µM [inhibitor, partial curve]	–
CCCC(=O)Nc1cc(C(=O)O)ccc1Sc1ccc(C)cc1	inconclusive: 39.8 µM [inhibitor, single point]	–
COc1ccc(-c2noc(CSc3nc4sc(C)c(C)c4c(=O)n3-c3ccccc3)n2)cc1OC	–	inactive: 2.56%
COc1ccc(OC)c(-c2cc(C(=O)Nc3c(C)nn(Cc4ccccc4)c3C)no2)c1	inconclusive: 35.5 µM [inhibitor, single point]	–
CN(C)c1ccc(-c2nc(N3CCNCC3)c3ccccc3n2)cc1	inconclusive: 39.8 µM [inhibitor, single point]	–
CCOC(=O)N1CCC(NC(=O)c2ccc3c(c2)N(Cc2ccc(C)cc2)CCS3)CC1	inconclusive: 35.5 µM [inhibitor, partial curve]	–
COc1ccc(-c2ccc(C(C)=O)cc2)cc1[C@H]1[C@@H]2C=CCC[C@@]2(C)C(=O)N1Cc1ccccc1	inconclusive: 28.2 µM [inhibitor, partial curve]	–
COc1ccc(-c2cc(-c3ccc(C)cc3)nc(SCc3nnc(-c4ccccc4)o3)c2C#N)cc1OC	inconclusive: 3.16 µM [inhibitor, partial curve]	–
CC(=O)N1N=C(c2ccc(Br)cc2)CC1c1cn(C)c2ccccc12 (stereo unspecified)	inconclusive: 35.5 µM [inhibitor, single point]	–
Cc1cccc(NC(=O)CNC(=O)COc2cc(F)ccc2[N+](=O)[O-])c1C	–	inactive: -0.681%
CCCn1c(=N)c(C(=O)NC2CCCC2)cc2c(=O)n3cccc(C)c3nc21	inconclusive: 0.126 µM [inhibitor, full curve, poor fit]	–

— PubChem BioAssay AID2147 (National Center for Advancing Translational Sciences (NCATS), 2009)
